We go through 20 molecules from article PMC9911399, “Two distinct binding modes provide the RNA-binding protein RbFox with extraordinary sequence specificity”.

Where a chain is given by its changes, count along the chain named. Some of the results follow.

First the molecules themselves.
B1: CCUUAGU (DNA:RNA)
RNA: GGGAGACCGGAAUUCAGAUUGUCCCCUUAGUUUAAAUCCCGUCGUAGCCACCA
DNA 1: CAATCTGAATTCCGGTCTCCC
DNA 2: TGGTGGCTACGACGGGATT
B2: UAAGGAG (DNA:RNA)
RNA: GGGAGACCGGAAUUCAGAUUGUCCUAAGGAGUUAAAUCCCGUCGUAGCCACCA
DNA 1: CAATCTGAATTCCGGTCTCCC
DNA 2: TGGTGGCTACGACGGGATT
B3: CCCAGCA (DNA:RNA)
RNA: B1 RNA with U27C, U28A, A29G, G30C, U31A
DNA 1: CAATCTGAATTCCGGTCTCCC
DNA 2: TGGTGGCTACGACGGGATT
B4: ACGAUCA (DNA:RNA)
RNA: B1 RNA with C25A, U27G, U28A, A29U, G30C, U31A
DNA 1: CAATCTGAATTCCGGTCTCCC
DNA 2: TGGTGGCTACGACGGGATT
B5: GGGAAAA (DNA:RNA)
RNA: B1 RNA with C25G, C26G, U27G, U28A, G30A, U31A
DNA 1: CAATCTGAATTCCGGTCTCCC
DNA 2: TGGTGGCTACGACGGGATT
B6: UAAGAGG (DNA:RNA)
RNA: B2 RNA with G29A, A30G
DNA 1: CAATCTGAATTCCGGTCTCCC
DNA 2: TGGTGGCTACGACGGGATT
B7: AGAGUCU (DNA:RNA)
RNA: B2 RNA with U25A, A26G, G29U, A30C, G31U
DNA 1: CAATCTGAATTCCGGTCTCCC
DNA 2: TGGTGGCTACGACGGGATT
B8: GCGAAGU (DNA:RNA)
RNA: B1 RNA with C25G, U27G, U28A
DNA 1: CAATCTGAATTCCGGTCTCCC
DNA 2: TGGTGGCTACGACGGGATT
B9: UAAAAUC (DNA:RNA)
RNA: B2 RNA with G28A, G29A, A30U, G31C
DNA 1: CAATCTGAATTCCGGTCTCCC
DNA 2: TGGTGGCTACGACGGGATT
B10: GUUACUU (DNA:RNA)
RNA: B1 RNA with C25G, C26U, U28A, A29C, G30U
DNA 1: CAATCTGAATTCCGGTCTCCC
DNA 2: TGGTGGCTACGACGGGATT
B11: AAUGGGU (DNA:RNA)
RNA: B1 RNA with C25A, C26A, U28G, A29G
DNA 1: CAATCTGAATTCCGGTCTCCC
DNA 2: TGGTGGCTACGACGGGATT
B12: CCAUCCU (DNA:RNA)
RNA: B1 RNA with U27A, A29C, G30C
DNA 1: CAATCTGAATTCCGGTCTCCC
DNA 2: TGGTGGCTACGACGGGATT
B13: AACUCAA (DNA:RNA)
RNA: B2 RNA with U25A, A27C, G28U, G29C, G31A
DNA 1: CAATCTGAATTCCGGTCTCCC
DNA 2: TGGTGGCTACGACGGGATT
B14: UUUAUUA (DNA:RNA)
RNA: B1 RNA with C25U, C26U, U28A, A29U, G30U, U31A
DNA 1: CAATCTGAATTCCGGTCTCCC
DNA 2: TGGTGGCTACGACGGGATT
B15: AGCAUGA (DNA:RNA)
RNA: B1 RNA with C25A, C26G, U27C, U28A, A29U, U31A
DNA 1: CAATCTGAATTCCGGTCTCCC
DNA 2: TGGTGGCTACGACGGGATT
B16: CAUUCUU (DNA:RNA)
RNA: B1 RNA with C26A, A29C, G30U
DNA 1: CAATCTGAATTCCGGTCTCCC
DNA 2: TGGTGGCTACGACGGGATT
B17: AAACGAC (DNA:RNA)
RNA: B2 RNA with U25A, G28C, G31C
DNA 1: CAATCTGAATTCCGGTCTCCC
DNA 2: TGGTGGCTACGACGGGATT
B18: AAAUUAG (DNA:RNA)
RNA: B2 RNA with U25A, G28U, G29U
DNA 1: CAATCTGAATTCCGGTCTCCC
DNA 2: TGGTGGCTACGACGGGATT
B19: CUUGAGC (DNA:RNA)
RNA: B1 RNA with C26U, U28G, U31C
DNA 1: CAATCTGAATTCCGGTCTCCC
DNA 2: TGGTGGCTACGACGGGATT
B20: UCAAACA (DNA:RNA)
RNA: B1 RNA with C25U, U27A, U28A, G30C, U31A
DNA 1: CAATCTGAATTCCGGTCTCCC
DNA 2: TGGTGGCTACGACGGGATT

For the assay, the target named is T1, RBFOX1 RRM (Homo sapiens, UniProt Q9NWB1 109-208).
T1 sequence: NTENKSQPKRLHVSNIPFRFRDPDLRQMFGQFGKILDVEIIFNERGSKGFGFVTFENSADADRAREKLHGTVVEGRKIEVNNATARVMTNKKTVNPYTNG
In words: EMSA; HiTS-Eq, 1 nM pool, 10 min; buffer printed only for the single-RNA assays: 10 mM Tris pH 7.5, 150 mM NaCl, 3.4 mM EDTA, 0.001% NP-40, 30 C. Conditions: tags: His6 N-terminal (pET28a); label: 5' 32P. An outline of the steps:
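These values rest on relative association constants, computed from read-count changes of each RNA species versus the control reaction and normalised to the cognate motif. Reads came from free RNA recovered by 8% native PAGE after purified RbFox RRM (wild type or mutant) at increasing concentrations was equilibrated for 10 min in 50 µL with 1 nM of a 5′-radiolabelled pool with 7 randomized nucleotides and DNA-annealed flanks.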
In general terms: Mobility shift assays separate free from complexed probe on a gel.
In the case of B1, the binding signal was 0.00902 KA relative to UGCAUGU.

Regarding B2, the binding signal was 0.00478 KA relative to UGCAUGU. For the molecule B3, the binding signal was 0.00339 KA relative to UGCAUGU. The result for B4 reads 0.00156 KA relative to UGCAUGU; that for B5, 0.0234 KA relative to UGCAUGU.

On to B6, for which the binding signal was 0.00536 KA relative to UGCAUGU. The result for B7 reads 0.0111 KA relative to UGCAUGU; that for B8, 0.0127 KA relative to UGCAUGU. Turning to B9, the binding signal was 0.00293 KA relative to UGCAUGU.

Regarding B10, the binding signal is 0.00794 KA relative to UGCAUGU. Turning to B11, the binding signal is 0.0094 KA relative to UGCAUGU. Take B12: the binding signal is 0.00475 KA relative to UGCAUGU. The result for B13 reads 0.000196 KA relative to UGCAUGU; that for B14, 0.00195 KA relative to UGCAUGU. In the case of B15, the binding signal was 0.35 KA relative to UGCAUGU. For the molecule B16, the binding signal was 0.00264 KA relative to UGCAUGU. On to B17, for which the binding signal was 0.00248 KA relative to UGCAUGU. On to B18, for which the binding signal was 0.00659 KA relative to UGCAUGU. In the case of B19, the binding signal was 0.014 KA relative to UGCAUGU. With B20, the binding signal was 0.00239 KA relative to UGCAUGU.
